Experimental findings from ChEMBL document CHEMBL5308541, “MAIP: An Open-Source Tool to Enrich High-Throughput Screening Output and Identify Novel, Druglike Molecules with Antimalarial Activity” (ACS Med Chem Lett, 2023) are described below.

SMILES strings stand for the structures. About 420 (8.8%) of roughly 4,800 compounds showed an effect of 50% or more. Some of the results follow.

For this test, the system named is Plasmodium falciparum. Briefly: Confirmatory screen in NF54 nanoGlo assay, in single point, at 2uM, 72h. The test is classed as functional, Erythrocyte. As to conditions: timepoint 72 hour.
In general, % Inhibition refers to the relative decrease from the control value, in per cent. As to `Cc1cc(N2CCC(NC3CCCC3Cc3ccc(F)cc3)CC2)nc(N)n1` (stereo not given), the “% Inhibition” value is 96%.

Consider `COc1ccc(-c2cc(-c3ccccc3O)n([C@@H]3C(=O)Nc4ccc(Br)cc43)n2)cc1`, for which the “% Inhibition” value was determined as 31%.

`CCOc1cc2nccc(N3C[C@H]4CN(C)C[C@H]4C3)c2cc1OCC`: the “% Inhibition” value came out at 98%.

In the case of `Cc1cc(C)c(CN2CCN(C)CC2)cc1CNCCCn1ccnc1C`, the “% Inhibition” value is given as 38%.

As to `CCCN(CCN1CCN(CC)CC1)c1nc(-c2ccccn2)nc2c1CCC2`, the “% Inhibition” value is recorded as 6%.

`Cc1noc(-c2ccnc(NC[C@@H](c3ccccn3)N3CCOCC3)c2)n1`: the “% Inhibition” value turned out to be 93%.

For `CCN1CCC(N2CCC(C(=O)NCCc3ccc(OC(F)(F)F)cc3)CC2)CC1`, the “% Inhibition” value turned out to be 48%.

As for `COc1ccc2c(C)cc(NCCCN3CCC[C@H](C(N)=O)C3)nc2c1`, the “% Inhibition” value is listed as 87%.

Turning to `N[C@H]1CC[C@@H](NC2CCN(c3ccc(F)c(F)c3)CC2)CC1`, the “% Inhibition” value came out at 45%.

As to `Cn1nnc(C(=O)N2CCCCC23CCCCCC3)n1`, the “% Inhibition” value came to 68%.

With `Cc1cc(O)c(Cl)cc1-c1cccc2c(N)ccnc12`, the “% Inhibition” value was determined as 91%.

Regarding `CN(c1ccccc1)c1ccc(CN2CCN([C@H]3CCNC3)CC2)cc1`, the “% Inhibition” value was found to be 54%.

As for `CN1CCC(CNC2CC3CC(C2)N(C(=O)OC(C)(C)C)C3)CC1` (stereo not given), the “% Inhibition” value worked out at 0%.

In the case of `Cc1ccc2nc(NC[C@H]3CCN(C4CC4)C3)cc(C)c2c1`, the “% Inhibition” value is listed as 93%.

For `C[C@@H](c1cccc(-c2nc3cc(C#N)ccc3[nH]2)c1)N(C)C`, the “% Inhibition” value was determined as 18%.

With `COc1ccc2c(O)c(Br)c(C)nc2c1`, the “% Inhibition” value is on record as 78%.

Take `Cc1sc2nc(-c3ccccn3)nc(NCCc3nccn3C)c2c1-c1ccccc1`: the “% Inhibition” value stood at 71%.

Regarding `Cc1nc(N2CCN(C)CC2)cc(N2CCN(S(=O)(=O)c3ccccc3C(F)(F)F)CC2)n1`, the “% Inhibition” value was 67%.

`c1cc(CN2CCN(c3cc(N4CCN(Cc5ccncc5)CC4)ncn3)CC2)ccn1`: the “% Inhibition” value was 0%.

`Nc1ccnc2ccc(-c3ccc(C(=O)NCC4CCOCC4)cc3)cc12`: the “% Inhibition” value turned out to be 77%.

On to `c1ccc(CNc2ccc(-c3noc(C45CCCN(CCC4)C5)n3)cn2)cc1`, for which the “% Inhibition” value was determined as 82%.

On to `CCc1cc(NCCc2nc3cc(F)ccc3[nH]2)nc(-c2ccccn2)n1`, for which the “% Inhibition” value was determined as 11%.

With `N#Cc1ccc(N2C[C@H](COCC3CC3)C3(CCN(Cc4cccc(O)c4)CC3)C2)cc1C(F)(F)F`, the “% Inhibition” value amounted to 80%.

Turning to `Cc1ccc2nccc(N3CCC(N4CCC(O)CC4)CC3)c2c1`, the “% Inhibition” value was found to be 10%.

For the compound `Cc1cnccc1N1CCCN(Cc2ccccc2OCCN2CCN(C)CC2)CC1`, the “% Inhibition” value turned out to be 99%.

Consider `Cc1cnc(NC2CC(=O)N3CCCCC23)nc1NC1CC(=O)N2CCCCC12` (stereo not given), for which the “% Inhibition” value turned out to be 3%.

Regarding `CCN(C)CC1CCN(c2nc(NCCOC)nc(N3CCC(CN(C)CC)C3)n2)C1` (stereo not given), the “% Inhibition” value came to 1%.

For `Cc1c(CN2CCC(O)(Cn3ccnc3)CC2)[nH]c2c(Cl)cccc12`, the “% Inhibition” value is listed as 96%.

With `COc1ccc2c(N3CC[C@H](CN4CCCC4)C3)ccnc2c1`, the “% Inhibition” value was 99%.

Turning to `CNC(=O)c1ccc(C(=O)Nc2nc(C3(C)CC3)ns2)cn1`, the “% Inhibition” value amounted to 1%.

Turning to `c1ccc2c(c1)CN(c1ncnc3[nH]ccc13)CC1(CCOCC1)O2`, the “% Inhibition” value was -10%.

With `Cc1cnccc1NCCNCc1ccc(OC(C)C)c(Cl)c1`, the “% Inhibition” value is on record as 73%.

On to `Brc1cccc(NCCNC2CCN(Cc3cccnc3)CC2)c1`, for which the “% Inhibition” value amounted to 36%.

For the compound `O[C@H]1CCN(Cc2cccc(NCc3cn4ccnc4s3)c2)C1`, the “% Inhibition” value was 38%.

Consider `Cc1cc(N2CC3COCCC3(C(=O)O)C2)nc2ccc(F)cc12` (stereo not given), for which the “% Inhibition” value was -2%.

`C[C@@H](c1ccc(-c2c(-c3ccccc3)ncn2CCCN(C)C)cc1)N(C)C`: the “% Inhibition” value was determined as 25%.

For `Oc1ccc(OC(F)(F)F)cc1-c1ccc2nccn2n1`, the “% Inhibition” value amounted to 83%.

Turning to `CN1CCC(N(C)C[C@H](Nc2ncnc3ccccc23)c2ccccc2)CC1`, the “% Inhibition” value is 99%.

In the case of `COc1ccc(-c2cccc3[nH]ccc23)nn1`, the “% Inhibition” value amounted to 12%.

Regarding `CC(C)c1ccc(CN2CCC[C@@](O)(CNCCN3CCNCC3)C2=O)cc1`, the “% Inhibition” value stood at 26%.

As to `CC(C)CCOc1ccc2[nH]c(-c3cc(N4CCC[C@@H]4CS(C)(=O)=O)ccn3)cc2c1`, the “% Inhibition” value is 99%.

Regarding `CC(C)(C)n1ncc2c(NCc3ccc4cccnc4c3O)ncnc21`, the “% Inhibition” value is reported as 27%.

With `CCCN1CCC(Nc2cc(C)nc3ccccc23)CC1`, the “% Inhibition” value was found to be 77%.

For the compound `Oc1cccc2c1CCC[C@@H]2NCc1ccc2occc2c1`, the “% Inhibition” value came to 29%.

On to `c1cc(CNC2CCN(C[C@H]3CCOC3)CC2)c2cc[nH]c2c1`, for which the “% Inhibition” value is recorded as -7%.

For the compound `O=C(NC1CCN(CCOc2ccc(Cl)cc2)CC1)c1c[nH]c2ccncc2c1=O`, the “% Inhibition” value is 92%.

Consider `Cc1nc2ccc(Oc3ccccc3)cc2c(O)c1CN(C)C1CCN(C)CC1`, for which the “% Inhibition” value was 22%.

Regarding `COc1ccc2cc(NC(=O)c3cc(-c4c(C)nn(C)c4C)[nH]n3)cnc2c1`, the “% Inhibition” value came to 73%.

For the compound `COc1ccc(OC2CCN(C3CCCC3)CC2)c(C(=O)NCc2cccc3[nH]ccc23)c1`, the “% Inhibition” value worked out at 44%.

As to `CCn1cc(-c2cccc(C(=O)N[C@@H](C)CN3CCc4ccccc4C3)c2)cn1`, the “% Inhibition” value amounted to 38%.

`CNc1nc(C)cc(N[C@@H]2COc3ccccc3C2)n1`: the “% Inhibition” value came to 41%.

Turning to `CN(C)CCN1CCC(CNCc2ccc3ncccc3c2)CC1`, the “% Inhibition” value worked out at 5%.

As for `CCNc1nc(C)cc(Nc2ccc(NC(=O)Nc3ccc(F)cc3F)cc2)n1`, the “% Inhibition” value is on record as 98%.

On to `CN1CCC(N(Cc2ccccc2)C(=O)c2cc3cnccc3[nH]2)CC1`, for which the “% Inhibition” value is recorded as 61%.

With `Cc1ccc(-c2nnc(Nc3ccccc3)c3ccccc23)cc1CN1C(=O)c2ccccc2C1=O`, the “% Inhibition” value was 49%.

Take `CN1CCC(Oc2ccc(NC(=O)c3cn4ccnc4s3)cn2)CC1`: the “% Inhibition” value is 86%.

Take `c1ccc2c(CNCCC3CCN(c4ccncc4)CC3)csc2c1`: the “% Inhibition” value is 77%.

For `COc1cc2nc(NCC3(N4CCN(C)CC4)CCCC3)cc(C)c2cc1OC`, the “% Inhibition” value is on record as 84%.

On to `NCCCCc1c(-c2cccnc2)[nH]c2c(Cl)cc(Cl)cc12`, for which the “% Inhibition” value was found to be 55%.

For `O[C@@]1(c2c[nH]nn2)CCN(c2ccnc3cc(Cl)ccc23)C1`, the “% Inhibition” value is reported as 59%.

With `OC[C@H](CNCc1cc2ccc(F)cc2[nH]1)c1ccccc1Cl`, the “% Inhibition” value is reported as 72%.

Consider `Cc1nc(-c2ccccn2)nc(NC2CCN(CC(F)F)CC2)c1C`, for which the “% Inhibition” value turned out to be 35%.

As to `CN(C)C1CCN(CCN[C@H]2CCc3ccc(F)cc32)CC1`, the “% Inhibition” value came out at 85%.

On to `CCOc1cc(C(=O)NC2CCN(CC3CCCC3)CC2)cc(-c2ccccc2)c1OC`, for which the “% Inhibition” value amounted to 95%.

Consider `COCCN1CCC[C@H](CNCc2cnn(-c3ccc4ccccc4c3)c2)C1`, for which the “% Inhibition” value is recorded as 12%.

Consider `O=C(Nc1cncnc1N1CCCC1)c1cc(F)cc2[nH]cnc12`, for which the “% Inhibition” value is on record as 28%.

Regarding `Cn1cc(-c2cncc(C(=O)NC3CCN(c4cccc(F)c4)CC3)c2)cn1`, the “% Inhibition” value is on record as 51%.

`CCOc1ccc2nc(N3CCCN(Cc4c(C)nn(CC)c4C)CC3)nc(C)c2c1`: the “% Inhibition” value is on record as 17%.

Turning to `Clc1ccc2[nH]c3c(c2c1)CCCC3NC1CCN(C2CCOC2)CC1` (stereo not given), the “% Inhibition” value was 81%.

Turning to `C[C@H]1CCCN(CCNC(=O)c2ccc(-c3ccc4c(=O)[nH]ccc4c3)cc2)C1`, the “% Inhibition” value was 58%.

Take `CCN1CCN([C@H]2CCN(c3ccnc4ccncc34)C2)CC1`: the “% Inhibition” value amounted to 97%.

As to `CN(Cc1cn(CC(N)=O)c2ccccc12)CC1CCN(CCc2ccc(F)cc2)CC1`, the “% Inhibition” value was 29%.

In the case of `Cc1ccc(-c2cc(C(=O)NC3CCN(C4CCN(C)CC4)CC3)n[nH]2)cc1C`, the “% Inhibition” value worked out at 98%.

In the case of `CCN(Cc1[nH]c2ccc(Cl)cc2c1C)CC1CCN(C2CCN(C)CC2)CC1`, the “% Inhibition” value was 89%.

Turning to `Brc1ccc2[nH]c3c(c2c1)CCCC3NC1CCc2[nH]cnc2C1` (stereo not given), the “% Inhibition” value turned out to be 97%.

Take `Cc1ocnc1CNC[C@H](O)c1ccc(Cl)c(Cl)c1`: the “% Inhibition” value is recorded as 89%.

As to `Nc1ccc(Nc2ccc(F)cc2)c2ccncc12`, the “% Inhibition” value is on record as 44%.

Turning to `CN(CCCn1ccnc1)c1ccnc2cc(Br)ccc12`, the “% Inhibition” value was 99%.

As to `Fc1ccc(-n2cc(CNCCC3CCN(c4ccncc4)CC3)cn2)cc1`, the “% Inhibition” value came to 88%.

As for `COCCN1CCC[C@@]2(CCN(c3ccnc4cc(Cl)ccc34)C2)C1`, the “% Inhibition” value is given as 99%.
